Experimental data: publication PMC6919601, “Identification of Plasmodium dipeptidyl aminopeptidase allosteric inhibitors by high throughput screening” (PLoS ONE, 2019)
About 230 (0.21%) of roughly 110,000 compounds showed an effect of 50% or more. The list shows a part of the results.

molecular target: DPAP1 (Plasmodium falciparum, UniProt Q8IIJ9); experiment: primary screen, percent inhibition; read by cleavage of a fluorogenic dipeptide substrate; higher = more effect of the substance; set-up: species or system P. falciparum D10 trophozoite lysates; single well
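Note: 30 min substrate incubation versus DMSO and 10 µM JCP410 controls.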

Sequence of DPAP1 (Q8IIJ9 whole entry, looked up): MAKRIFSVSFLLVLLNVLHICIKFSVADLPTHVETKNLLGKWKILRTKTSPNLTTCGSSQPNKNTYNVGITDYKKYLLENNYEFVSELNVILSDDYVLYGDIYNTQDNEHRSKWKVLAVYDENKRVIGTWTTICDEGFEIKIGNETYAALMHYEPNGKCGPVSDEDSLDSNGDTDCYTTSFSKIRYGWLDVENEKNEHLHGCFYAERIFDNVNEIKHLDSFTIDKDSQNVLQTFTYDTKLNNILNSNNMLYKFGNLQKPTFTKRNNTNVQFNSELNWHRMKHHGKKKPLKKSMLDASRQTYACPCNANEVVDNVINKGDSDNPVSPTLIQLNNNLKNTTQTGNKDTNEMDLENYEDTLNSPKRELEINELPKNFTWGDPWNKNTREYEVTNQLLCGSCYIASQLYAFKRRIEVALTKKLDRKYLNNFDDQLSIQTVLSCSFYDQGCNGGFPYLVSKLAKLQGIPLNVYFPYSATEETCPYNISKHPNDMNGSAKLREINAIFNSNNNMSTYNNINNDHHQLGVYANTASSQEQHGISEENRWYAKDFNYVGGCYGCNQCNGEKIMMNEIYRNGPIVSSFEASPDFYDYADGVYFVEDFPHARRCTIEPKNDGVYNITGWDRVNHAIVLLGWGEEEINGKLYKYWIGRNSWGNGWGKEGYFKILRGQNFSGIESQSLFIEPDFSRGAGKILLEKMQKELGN

Row | Structure (SMILES) | % Inhibition @ 10 uM [%]
1 | COc1ccc(N(CC(=O)N(C)C)S(=O)(=O)c2ccc(C)cc2)c(OC)c1 | 0.324
2 | Nc1c(Cl)cc(-c2nc3ccccc3o2)cc1Cl | 6.79
3 | Cc1ccc(CNC(=O)C2CCCN(c3cnccn3)C2)cc1 (stereo not shown) | 3.88
4 | Cc1ccnc(NC(c2ccccc2Cl)c2ccc3cccnc3c2O)c1 (stereo not shown) | -10.8
5 | CCOC(=O)c1oc2ccc(S(=O)(=O)Nc3c(C)nc4ncnn4c3O)cc2c1C | -1.68
6 | CCc1ccc(-c2nc(SCC(=O)NCC3CCCO3)c(-c3ccc(OC)c(OC)c3)[nH]2)cc1 (stereo not shown) | 1.85
7 | CCN(CC)C(=O)C1CCCN(Cc2ccc(OC)c(Br)c2)C1 (stereo not shown) | -1.98
8 | N#CCNC(=O)[C@H](Cc1cc(Cl)c(O)c(Cl)c1)NC(=O)c1ccc(F)cc1F | -6.46
9 | O=C(Nc1cnc2ccccc2c1)c1ccc2ccccc2c1 | 0.238
10 | N#Cc1c[nH]nc1NCc1ccc2c(c1)OCO2 | -2.05
11 | COc1ccc(C2CC(C(F)(F)F)n3nc(C(=O)NC(C)C)c(Cl)c3N2)cc1 (stereo not shown) | 2.44
12 | Cc1ccccc1N1C(=O)CC(c2cn(C)c3ccccc23)C1=O (stereo not shown) | 1.92
13 | CN1C(=O)/C(=C/c2ccc(Cl)cc2Cl)N=C1SCC(=O)NCc1ccccc1 | 1.03
14 | CCn1c(C)[n+](CC)c2cc(C(=O)N(C)C)ccc21 | -0.615
15 | CSc1nc2c(c(-c3ccccc3)c1C#N)CCC2 | 5.18
16 | CCN(CC)CCOC(=O)c1c(C)nc2n(C)c3ccccc3n12 | 3.74
17 | CCN1CCC2(CC1)OC(=O)C(C)=C2C(=O)NCCCOC(C)C | 4.11
18 | Cc1ccc(Cn2c(-c3nonc3N)nc3ccccc32)cc1 | 4.1
19 | O=C(C1CCN(S(=O)(=O)c2c[nH]cn2)CC1)N(CCc1ccccc1)Cc1ccccc1 | 2.9
20 | COC(=O)c1cc(-c2cccc(OC)c2)[nH]n1 | 3.87
21 | O=C(CCNS(=O)(=O)c1ccc(Cl)cc1)N1CCN(Cc2ccccc2)CC1 | 2.05
22 | CCCN1CCN(C(=O)c2nn(C)c3c2CSc2ccccc2-3)CC1 | 1.68

Row | Structure (SMILES) | % Inhibition @ 10 uM [%]
23 | N#CC1=C(N)Oc2ccc3ccccc3c2C1c1cccnc1 (stereo not shown) | -7.52
24 | CC(C)c1ccc(CN2CCN(CCO)CC2)cc1 | 2.22
25 | COc1ccc(S(=O)(=O)N(C)CC(=O)N2CCN(c3ccc(F)cc3)CC2)cc1 | 15.9
26 | CC(C)CN(CCNCc1c(C(=O)O)n(C)c2ccccc12)CC(C)C | 1.93
27 | CCN(CC)CCn1c(NC(=O)C23CC4CC(CC(C4)C2)C3)nc2ccccc21 | 3.01
28 | O=C(Cc1cccc2ccccc12)NCCn1ccc2ccccc21 | -3.51
29 | O=C(O)[C@H]1CCCC[C@H]1C(=O)Nc1ccc(Nc2ccccc2)cc1 | -8.28
30 | O=C(O)/C=C\C(=O)Nc1ccccc1C#Cc1ccc(Br)cc1 | 2.26
31 | COc1ccc(-c2cc3ccc(OC)cc3s2)cc1 | -1.44
32 | COc1ccc(-c2csc3ncn(Cc4ccccc4C)c(=O)c23)cc1OC | 5.09
33 | CCCCc1ccc(-c2c(C#N)c(N)nc3c2CCCC3)s1 | -4.04
34 | c1ccc(CNc2nc3ccccc3c3ccccc23)cc1 | 1.04
35 | Cc1ccc(OCC(=O)NC2CCCC2)cc1C | -5.54
36 | CCOC(=O)c1c(S(=O)(=O)NCc2cc(OC)ccc2OC)c(C)n(C)c1C | -4.9
37 | O=C(O)C1CC=CCC1C(=O)Nc1ccc(N2CCN(c3ccc(F)cc3)CC2)cc1 (stereo not shown) | -0.00273
38 | N#Cc1ccc(NC(=O)CSc2nc3ccccc3[nH]2)cc1 | -8.95
39 | COCc1cc(C)nc2c1C(=O)N1C(=O)c3ccccc3C1N2Cc1ccccc1 (stereo not shown) | -5.72
40 | COc1ccc(OC)c(C2C3=C(O)CCCC3=NC(C)=C2C(=O)Nc2cccc(C(F)(F)F)c2)c1 (stereo not shown) | -5.34
41 | Nc1c(C(=O)NCc2ccco2)nnn1-c1ccccc1 | 6.65
42 | Cc1cc(C)nc(O)c1 | -1.62
43 | O=C(NCc1ccccc1Cl)C1CCN(S(=O)(=O)c2cccc3nonc23)CC1 | -3.21
44 | CC(C)NC(=O)Cc1c(O)nc2ccccc2c1O | 1.27

Row | Structure (SMILES) | % Inhibition @ 10 uM [%]
45 | O=C(CSc1ccc(Br)cc1)Nc1ccc(Cl)cc1 | -2.64
46 | CCN1CCCC1CNC(=O)C1CCCN(c2nn3c(=O)cc(C)nc3s2)C1 (stereo not shown) | 3
47 | COc1cccc(-c2nc(CSCC(=O)NC(C)C)c(C)o2)c1 | -2.85
48 | COc1ccc(N2C(=O)C(NC(=O)C(C)(C)C)(C(F)(F)F)C3=C2CC(C)(C)CC3=O)cc1 (stereo not shown) | -2.21
49 | O=C(Nc1ccccc1O)c1ccc2c(c1)C(=O)N(Cc1ccco1)C2=O | 5.31
50 | CCOC(=O)NC(Cc1c[nH]c2ccccc12)C(=O)NCCc1ccc(S(N)(=O)=O)cc1 (stereo not shown) | -6.5
51 | COc1ccccc1C1C2=C(O)CCCC2=NC(C)=C1C(=O)OCCc1ccccc1 (stereo not shown) | 4.35
52 | COc1cccc(C(=O)Nc2nc(C)cc(C)n2)c1OC | 3.32
53 | Cc1ccc(C(C)C)c(OCc2nc3c4cnn(C)c4ncn3n2)c1 | -0.386
54 | CCC(=O)Nc1c(-c2ccccc2)nc2c(C)cccn12 | 1.97
55 | CC1CCc2cccc3c(O)cc(=O)n1c23 (stereo not shown) | -0.25
56 | COc1ccc(-c2cc(C(=O)NC3CC3)c3ccccc3n2)cc1 | -9.73
57 | CCN(CC)c1ccc2c(N3CCCCC3)cc(=O)oc2c1 | -2.97
58 | CC(=O)N1c2ccc(N)cc2C(C)(c2ccccc2)CC1(C)C (stereo not shown) | 4.17
59 | Cc1ccc(C2=NN(CC(=O)NC3CCCCC3C)C(=O)CC2)cc1 (stereo not shown) | -4.83
60 | O=C1NC(=O)N(c2ccc(Cl)cc2)C(=O)/C1=C\Nc1ccc(C(=O)N2CCCCC2)cc1 | 5.89
61 | COc1ccc2[nH]c(-c3ccc(C#N)cc3)nc2c1 | 5.69
62 | CCc1nc2c(=O)oc3ccccc3c2n1CC | -1.68
63 | Cc1nc(N2CCCCC2)c2c(C)c(C(=O)N3CCN(c4ccccn4)CC3)sc2n1 | 1.2
64 | N#C/C(=C\c1c[nH]nc1-c1ccccc1)S(=O)(=O)c1ccc(Cl)cc1 | 3.54
